Structures are written as SMILES. Some of the results follow. Most values come without repeats; read them as rough.
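Note: cells treated in 1,536-well plates, then fixed and DAPI-stained, with nuclei counted from automated high-throughput microscope images.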

For the assay, the system named is WM1716. Put plainly: cell count relative to DMSO control; melanoma cells; higher = more viable cells. The settings on record: library dose: standard library concentration; 72 h.
`COc1cc([C@@H]2c3cc4c(cc3[C@@H](O[C@@H]3O[C@@H]5CO[C@@H](C)O[C@H]5[C@H](O)[C@H]3O)[C@H]3COC(=O)[C@H]23)OCO4)cc(OC)c1O` [etoposide] + C=CCn1c(=O)c2cnc(Nc3ccc(N4CCN(C)CC4)cc3)nc2n1-c1cccc(C(C)(C)O)n1 [MK1775] (first compound 0.1 µM, partner dose 0.1 µM) came in with a cell count of 54.5%.

`C[C@]1(O)C[C@@H](c2nc(-c3ccc4ccc(-c5ccccc5)nc4c3)c3c(N)nccn32)C1` + Cc1cc(N2CCOCC2)cc2[nH]c(-c3c(NC[C@@H](O)c4cccc(Cl)c4)cc[nH]c3=O)nc12 [BMS536924] (first compound 2 µM, partner dose 1 µM) showed a cell count of 104%.

`Cn1cnc2c(F)c(Nc3ccc(Br)cc3Cl)c(C(=O)NOCCO)cc21` [selumetinib] + O=C(CCCCCCC(=O)Nc1ccccc1)NO [vorinostat] (first compound 0.075 µM, partner dose 0.4 µM) showed a cell count of 78.9%.

`Cn1cnc2c(F)c(Nc3ccc(Br)cc3Cl)c(C(=O)NOCCO)cc21` [selumetinib] + CC(C)(C)c1cnc(CSc2cnc(NC(=O)C3CCNCC3)s2)o1 [SNS-032] (first compound 0.075 µM, partner dose 0.05 µM): the cell count came out at 73.7%.

For the compound `COc1cc([C@@H]2c3cc4c(cc3[C@@H](O[C@@H]3O[C@@H]5CO[C@@H](C)O[C@H]5[C@H](O)[C@H]3O)[C@H]3COC(=O)[C@H]23)OCO4)cc(OC)c1O` [etoposide] + Cc1ccc(NC(=O)c2cccc(N(C)C)c2)cc1NC(=O)c1ccc(O)cc1 [ZM336372] (first compound 0.1 µM, partner dose 10 µM), the cell count was found to be 80%.

For the compound `Cn1cnc2c(F)c(Nc3ccc(Br)cc3Cl)c(C(=O)NOCCO)cc21` [selumetinib] + COc1cc2c(Oc3ccc4[nH]c(C)cc4c3F)ncnc2cc1OCCCN1CCCC1 [cediranib] (first compound 0.075 µM, partner dose 2 µM), the cell count stood at 72.2%.

Compound `COc1cc([C@@H]2c3cc4c(cc3[C@@H](O[C@@H]3O[C@@H]5CO[C@@H](C)O[C@H]5[C@H](O)[C@H]3O)[C@H]3COC(=O)[C@H]23)OCO4)cc(OC)c1O` [etoposide] + CN(C)S(=O)(=O)c1ccc2c(c1)/C(=C/c1cc3c([nH]1)CCCC3)C(=O)N2 [SU6656] (first compound 0.1 µM, partner dose 2 µM) gave a cell count of 61.5%.

In turn, `COc1cc([C@@H]2c3cc4c(cc3[C@@H](O[C@@H]3O[C@@H]5CO[C@@H](C)O[C@H]5[C@H](O)[C@H]3O)[C@H]3COC(=O)[C@H]23)OCO4)cc(OC)c1O` [etoposide] + CCCS(=O)(=O)Nc1ccc(F)c(C(=O)c2c[nH]c3ncc(Cl)cc23)c1F [PLX4720] (first compound 0.1 µM, partner dose 0.4 µM) came in with a cell count of 67.7%.

`Cn1cnc2c(F)c(Nc3ccc(Br)cc3Cl)c(C(=O)NOCCO)cc21` [selumetinib] + CN(NC(=O)CC(=O)NN(C)C(=S)c1ccccc1)C(=S)c1ccccc1 [STA4783] (first compound 0.075 µM, partner dose 0.03 µM) came in with a cell count of 74.3%.

In turn, `CCN(CC)CCNC(=O)c1c(C)[nH]c(/C=C2\C(=O)Nc3ccc(F)cc32)c1C` [sunitinib] + O=C(CCCCCCC(=O)Nc1ccccc1)NO [vorinostat] (first compound 2 µM, partner dose 0.4 µM) displayed a cell count of 111%.

Compound `COc1cc([C@@H]2c3cc4c(cc3[C@@H](O[C@@H]3O[C@@H]5CO[C@@H](C)O[C@H]5[C@H](O)[C@H]3O)[C@H]3COC(=O)[C@H]23)OCO4)cc(OC)c1O` [etoposide] + C[C@@H]1CCN(C(=O)CC#N)C[C@@H]1N(C)c1ncnc2[nH]ccc12 [CP690550] (first compound 0.1 µM, partner dose 5 µM) returned a cell count of 80.9%.

As to `CCN(CC)CCNC(=O)c1c(C)[nH]c(/C=C2\C(=O)Nc3ccc(F)cc32)c1C` [sunitinib] + COc1cc(Nc2ncc(F)c(Nc3ccc4c(n3)NC(=O)C(C)(C)O4)n2)cc(OC)c1OC [Tamatinib] (first compound 2 µM, partner dose 2 µM), the cell count turned out to be 60.6%.

Take `COc1cc([C@@H]2c3cc4c(cc3[C@@H](O[C@@H]3O[C@@H]5CO[C@@H](C)O[C@H]5[C@H](O)[C@H]3O)[C@H]3COC(=O)[C@H]23)OCO4)cc(OC)c1O` [etoposide] + OCCn1cc(-c2cnc3nnn(Cc4ccc5ncccc5c4)c3n2)cn1 [PF04217903] (first compound 0.1 µM, partner dose 5 µM): the cell count was 58.6%.

In turn, `C[C@]1(O)C[C@@H](c2nc(-c3ccc4ccc(-c5ccccc5)nc4c3)c3c(N)nccn32)C1` + CN(C)S(=O)(=O)c1ccc2c(c1)/C(=C/c1cc3c([nH]1)CCCC3)C(=O)N2 [SU6656] (first compound 2 µM, partner dose 2 µM) had a cell count of 53.9%.

For `C[C@]1(O)C[C@@H](c2nc(-c3ccc4ccc(-c5ccccc5)nc4c3)c3c(N)nccn32)C1` + COc1cc2c(Oc3ccc4[nH]c(C)cc4c3F)ncnc2cc1OCCCN1CCCC1 [cediranib] (first compound 2 µM, partner dose 2 µM), the cell count was found to be 124%.

As to `CCN(CC)CCNC(=O)c1c(C)[nH]c(/C=C2\C(=O)Nc3ccc(F)cc32)c1C` [sunitinib] + CO[C@@H]1[C@H](N(C)C(=O)c2ccccc2)C[C@H]2O[C@]1(C)n1c3ccccc3c3c4c(c5c6ccccc6n2c5c31)C(=O)NC4 [Midostaurin] (first compound 2 µM, partner dose 0.4 µM), the cell count was found to be 62.1%.

In turn, `COc1cc([C@@H]2c3cc4c(cc3[C@@H](O[C@@H]3O[C@@H]5CO[C@@H](C)O[C@H]5[C@H](O)[C@H]3O)[C@H]3COC(=O)[C@H]23)OCO4)cc(OC)c1O` [etoposide] + CC(C)(C)c1cnc(CSc2cnc(NC(=O)C3CCNCC3)s2)o1 [SNS-032] (first compound 0.1 µM, partner dose 0.05 µM) showed a cell count of 85.6%.

For the compound `C[C@]1(O)C[C@@H](c2nc(-c3ccc4ccc(-c5ccccc5)nc4c3)c3c(N)nccn32)C1` + C=CCn1c(=O)c2cnc(Nc3ccc(N4CCN(C)CC4)cc3)nc2n1-c1cccc(C(C)(C)O)n1 [MK1775] (first compound 2 µM, partner dose 0.1 µM), the cell count came to 84.6%.

For `COc1cc([C@@H]2c3cc4c(cc3[C@@H](O[C@@H]3O[C@@H]5CO[C@@H](C)O[C@H]5[C@H](O)[C@H]3O)[C@H]3COC(=O)[C@H]23)OCO4)cc(OC)c1O` [etoposide] + O=C(CCCCCCC(=O)Nc1ccccc1)NO [vorinostat] (first compound 0.1 µM, partner dose 0.4 µM), the cell count was determined as 69.7%.

`COc1cc([C@@H]2c3cc4c(cc3[C@@H](O[C@@H]3O[C@@H]5CO[C@@H](C)O[C@H]5[C@H](O)[C@H]3O)[C@H]3COC(=O)[C@H]23)OCO4)cc(OC)c1O` [etoposide] + O=C(O)c1ccc(-c2c[nH]c3ncc(-c4ccccc4)cc23)cc1C1CCCC1 [GSK650394] (first compound 0.1 µM, partner dose 0.8 µM) showed a cell count of 73%.

On to `Cn1cnc2c(F)c(Nc3ccc(Br)cc3Cl)c(C(=O)NOCCO)cc21` [selumetinib] + Cc1ccc(NC(=O)c2cccc(N(C)C)c2)cc1NC(=O)c1ccc(O)cc1 [ZM336372] (first compound 0.075 µM, partner dose 10 µM), for which the cell count was 91.2%.

Take `C[C@]1(O)C[C@@H](c2nc(-c3ccc4ccc(-c5ccccc5)nc4c3)c3c(N)nccn32)C1` + OCCn1cc(-c2cnc3nnn(Cc4ccc5ncccc5c4)c3n2)cn1 [PF04217903] (first compound 2 µM, partner dose 5 µM): the cell count amounted to 96.1%.

`CCN(CC)CCNC(=O)c1c(C)[nH]c(/C=C2\C(=O)Nc3ccc(F)cc32)c1C` [sunitinib] + CN(C)S(=O)(=O)c1ccc2c(c1)/C(=C/c1cc3c([nH]1)CCCC3)C(=O)N2 [SU6656] (first compound 2 µM, partner dose 2 µM): the cell count is 80.1%.

Consider `CCN(CC)CCNC(=O)c1c(C)[nH]c(/C=C2\C(=O)Nc3ccc(F)cc32)c1C` [sunitinib] + CC(C)(C)c1cnc(CSc2cnc(NC(=O)C3CCNCC3)s2)o1 [SNS-032] (first compound 2 µM, partner dose 0.05 µM), for which the cell count stood at 58.4%.

For `Cn1cnc2c(F)c(Nc3ccc(Br)cc3Cl)c(C(=O)NOCCO)cc21` [selumetinib] + O=C(Nc1cccc(Cl)c1)Nc1ncc(CCNc2ncnc3ccsc23)s1 [SNS314] (first compound 0.075 µM, partner dose 0.004 µM), the cell count came out at 78.2%.

Regarding `COc1cc([C@@H]2c3cc4c(cc3[C@@H](O[C@@H]3O[C@@H]5CO[C@@H](C)O[C@H]5[C@H](O)[C@H]3O)[C@H]3COC(=O)[C@H]23)OCO4)cc(OC)c1O` [etoposide] + CC1(C)NC(=O)N(c2ccc([N+](=O)[O-])c(C(F)(F)F)c2)C1=O [nilutamide] (first compound 0.1 µM, partner dose 5 µM), the cell count is 63.3%.
